# The supplement of paper PMC4466236
# In all, about 33,000 sequences were measured (“E-score (dimensionless, -0.5 to 0.5)”: median about -0.058, highest 2% from about 0.35 on). Some of the results follow.
# System: MvaT
# Assay: PBM 8-mer E-score (mean of HK and ME arrays) (E-score (dimensionless, -0.5 to 0.5)); higher = stronger relative binding preference; most listed sequences are background and not binding sites
# How it was run: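 Reported values are rank-based E-scores, taken as the mean of two universal arrays and parsed with a custom script. Each 8-mer score falls between -0.5 and 0.5. The arrays, ME and HK, were double-stranded 60-mers with a constant 25-mer primer region and a variable 35-mer region covering all 8-mers. They were probed, by an earlier protocol, with full-length P. aeruginosa MvaT carrying an N-terminal glutathione S-transferase fusion.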
row,Sequence,PBM 8-mer E-score
1,GGATTTCA,0.0657
2,ATTTTAGC,0.13
3,AGGTCAGG,-0.135
4,ATCTGGAC,-0.0431
5,AGCGGGAG,-0.185
6,ATATCCCC,-0.0141
7,GGGTCACC,-0.173
8,CAGATCGC,-0.19
9,AGCAGCTC,-0.196
10,ATGGGTCC,-0.174
11,AGGGCTAC,-0.209
12,GCACGCTA,-0.097
13,CTTGGTCA,-0.14
14,CGCTCATC,-0.201
15,GCGGAAGA,-0.182
16,AAAACTGT,0.0621
17,AAACTTAC,0.306
18,AGCTAAAC,0.11
19,CGTCCTCC,-0.424
20,CGTTATGA,0.0719
21,ATCTAGTC,-0.0232
22,ATGGGATC,-0.0131
23,CCCCACCA,-0.257
24,GACGCTAA,-0.0445
25,GCACTGCA,-0.113

row,Sequence,PBM 8-mer E-score
1,AGAGTCGA,-0.0162
2,CTGACGAA,-0.0586
3,AGCAAACC,0.0452
4,ACGGTCCC,-0.249
5,GCCGGCTA,-0.154
6,CGGTCACG,-0.177
7,CAGATAAG,0.138
8,ACAGGGCA,-0.18
9,GTCTTATA,0.325
10,GGTATTCA,-0.0547
11,CACCTGTC,-0.218
12,AGCACTCC,-0.0752
13,CGCGCTGC,-0.294
14,CCCGCTGC,-0.273
15,CTGGAACA,0.00992
16,GCGCTGCA,-0.246
17,GTCCCGCA,-0.134
18,GACTCACA,-0.0935
19,CTGAACAG,-0.176
20,AGTTGATA,0.26
21,AGTCACTC,-0.134
22,ACGCGAAA,0.0806
23,CTCGATCA,-0.161
24,AGTGTAAC,0.186
25,CACGCACA,-0.134

row,Sequence,PBM 8-mer E-score
1,GCCACACA,-0.0199
2,GAAGAATA,0.27
3,CGGGGACG,-0.127
4,ACTGTGTC,-0.135
5,ACGAACAA,0.151
6,AATTAGGG,0.137
7,CTGGCTAA,-0.116
8,CAATGGTA,0.0333
9,AGGGAGCC,-0.292
10,ACAATCAC,0.00599
11,ATTCGAAC,0.134
12,GCGCACGC,-0.0974
13,GCAGGCGC,-0.28
14,AAGGCCCC,-0.374
15,TGGATGAA,0.0531
16,CGCCCCCG,-0.35
17,ACTTACGC,0.114
18,GACTCTGA,-0.157
19,GTCGGGGA,-0.0791
20,AGTTGAAC,0.0069
21,AGTGTTTC,0.161
22,TGCTCACA,-0.0823
23,ATACTCGG,0.0138
24,AAGAATAC,0.118
25,GACAATTA,0.319

row,Sequence,PBM 8-mer E-score
1,ACGAGGCG,-0.21
2,AGATAGCT,-0.189
3,CCGAGGAG,-0.344
4,CGGAGTAG,-0.106
5,TAAGAGCA,0.0541
6,ACGCGCAT,-0.121
7,CAATAAAG,0.252
8,CCCCTGGA,-0.328
9,GCGAATCA,-0.189
10,GCTTAGAC,-0.047
11,CCAAGGCC,-0.219
12,ATGAGTGG,-0.0617
13,ATGTTTGA,0.189
14,TCCTGGCA,-0.144
15,CGCCGGGA,-0.228
16,GCGCTCCC,-0.314
17,CATGTATA,0.264
18,CACGAACA,-0.0447
19,ATAACGTA,0.255
20,ATGCTGTG,0.0845
21,GCCGGGCC,-0.266
22,ACGAATAA,0.259
23,GGGCCTTA,-0.0543
24,GACCAGAA,0.0488
25,GCGAGGCC,-0.291

row,Sequence,PBM 8-mer E-score
1,ACCAACCG,-0.102
2,GTACGAAC,0.0637
3,GCAGAACA,-0.0745
4,AGGTCTCG,-0.241
5,GTTTCGAA,0.0411
6,AGCCCCCA,-0.266
7,TCCTTGCA,-0.0026
8,ATGTCAGA,-0.0205
9,AGATATCC,-0.0391
10,AAATGATT,0.165
11,AGGGACAA,-0.0788
12,GTAAAGGA,-0.0842
13,CACTTGAG,-0.0853
14,ACCCCCTA,-0.316
15,CTACTGGA,-0.112
16,TCCGTGAA,-0.0575
17,ACGATCGC,-0.157
18,AGCGAACA,-0.105
19,CGTGGTAC,-0.0852
20,AAAAATGG,0.0876
21,TCCATACA,0.0243
22,ACCGTGAC,-0.11
23,ACTTGACC,-0.00383
24,CGGAGCCC,-0.226
25,AGAAGACA,0.0191

row,Sequence,PBM 8-mer E-score
1,AGGAGAGC,-0.304
2,CTATAGCA,0.0375
3,AAGCGTTG,-0.0764
4,TATTTCCA,0.312
5,CCGGGCAG,-0.319
6,CAGCCGCG,-0.258
7,ATACAGTA,0.284
8,CCTCCTGA,-0.324
9,CTCCGGTC,-0.106
10,GAATGGCC,-0.138
11,CAGTCGTC,-0.153
12,CATCGAGC,-0.118
13,AGTCCTAG,-0.168
14,CCTCCGTA,-0.327
15,GAGTATGC,0.0856
16,CATTCAAG,0.0214
17,CTACTTAA,0.255
18,CAGCGTAG,-0.152
19,CATGTCGG,-0.063
20,AAGGACCG,-0.158
21,AGCGTCTC,-0.29
22,GGCTCACA,-0.151
23,GACACGTA,0.0346
24,GATTGGCA,-0.153
25,ACCAGCAA,0.0594

row,Sequence,PBM 8-mer E-score
1,CTACCCTC,-0.249
2,ACGAGCCT,-0.209
3,AGCTAGAC,-0.119
4,CGTAGGCC,-0.294
5,GCCCTCGA,-0.345
6,AGCGTATC,-0.151
7,GCGATCAA,-0.00435
8,GTCATGTA,-0.0366
9,GCACCCAA,-0.0708
10,ATGGGTTG,-0.032
11,CTAAGCAG,-0.208
12,TCAATCCA,-0.104
13,CCCGTCTC,-0.187
14,TCCGAGGA,-0.105
15,CCGGTCCG,-0.107
16,ATGAGATA,0.098
17,GGACTTAC,-0.0202
18,AGAGGCAT,-0.0507
19,AGACATAC,0.108
20,CCAGCAAC,-0.0157
21,CGGATTTA,0.0502
22,AATTTAGG,0.182
